Experimental data reported in the supplement of paper PMC8728848.
The other results are listed elsewhere or left out.

Key:
Test in all cases: glycan array binding signal (z-score within array); higher = stronger binding
Conditions in all cases: glycan notation: IUPAC condensed, linker removed
Neu5Ac(a2-8)Neu5Ac = target: Neu5Ac(a2-8)Neu5Ac
Outline: (§1)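 The binding signal is a Z-score computed within each array. Data were drawn from 3228 arrays in the Consortium for Functional Glycomics database, restricted to those with a known protein sequence. Scores were averaged over arrays of the same protein sequence at different concentrations or buffers, and over linkers, and negative values can be taken as non-binding.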

[1] = target: Neu5Ac(a2-8)Neu5Ac(a2-3)Gal(b1-3)GalNAc(b1-4)[Neu5Ac(a2-3)]Gal(b1-4)Glc
Outline: as §1

[2] = target: Neu5Ac(a2-8)Neu5Ac(a2-3)Gal(b1-3)GalNAc(b1-4)[Neu5Ac(a2-8)Neu5Ac(a2-3)]Gal(b1-4)Glc
Outline: as §1

[3] = target: Neu5Ac(a2-8)Neu5Ac(a2-3)Gal(b1-4)Glc
Outline: as §1

[4] = target: Neu5Ac(a2-8)Neu5Ac(a2-3)Gal(b1-4)GlcNAc
Outline: as §1

[5] = target: Neu5Ac(a2-8)Neu5Ac(a2-3)[Gal(b1-3)GalNAc(b1-4)]Gal(b1-4)Glc
Outline: as §1

[6] = target: Neu5Ac(a2-8)Neu5Ac(a2-3)[GalNAc(b1-4)]Gal(b1-4)Glc
Outline: as §1

[7] = target: Neu5Ac(a2-8)Neu5Ac(a2-8)Neu5Ac
Outline: as §1

[8] = target: Neu5Ac(a2-8)Neu5Ac(a2-8)Neu5Ac(a2-3)Gal(b1-4)Glc
Outline: as §1

[9] = target: Neu5Ac(a2-8)Neu5Ac(a2-8)Neu5Ac(a2-3)[Gal(b1-3)GalNAc(b1-4)]Gal(b1-4)Glc
Outline: as §1

[10] = target: Neu5Ac(a2-8)Neu5Ac(a2-8)Neu5Ac(a2-3)[GalNAc(b1-4)]Gal(b1-4)Glc
Outline: as §1

[11] = target: Neu5Ac(a2-8)Neu5Ac(a2-8)Neu5Ac(a2-8)Neu5Ac(a2-3)[GalNAc(b1-4)]Gal(b1-4)Glc
Outline: as §1

[12] = target: Neu5Ac(a2-8)Neu5Gc(a2-3)Gal(b1-4)GlcNAc
Outline: as §1

[13] = target: Neu5Ac(b2-6)Gal(b1-4)GlcNAc
Outline: as §1

Neu5Ac(b2-6)GalNAc = target: Neu5Ac(b2-6)GalNAc
Outline: as §1

[14] = target: Neu5Ac9Ac(a2-3)Gal(b1-3)GlcNAc
Outline: as §1

[15] = target: Neu5Ac9Ac(a2-3)Gal(b1-4)GlcNAc
Outline: as §1

[16] = target: Neu5Ac9Ac(a2-6)Gal(b1-4)GlcNAc
Outline: as §1

[17] = target: Neu5Gc(a2-3)Gal(b1-3)GlcNAc
Outline: as §1

[18] = target: Neu5Gc(a2-3)Gal(b1-3)[Fuc(a1-4)]GlcNAc
Outline: as §1

Neu5Gc(a2-3)Gal(b1-4)Glc = target: Neu5Gc(a2-3)Gal(b1-4)Glc
Outline: as §1

[19] = target: Neu5Gc(a2-3)Gal(b1-4)GlcNAc
Outline: as §1

[20] = target: Neu5Gc(a2-3)Gal(b1-4)GlcNAc(b1-3)Gal(b1-4)GlcNAc(b1-2)Man(a1-3)[Neu5Gc(a2-3)Gal(b1-4)GlcNAc(b1-3)Gal(b1-4)GlcNAc(b1-2)Man(a1-6)]Man(b1-4)GlcNAc(b1-4)GlcNAc
Outline: as §1

[21] = target: Neu5Gc(a2-3)Gal(b1-4)[Fuc(a1-3)]GlcNAc
Outline: as §1

[22] = target: Neu5Gc(a2-6)Gal(b1-4)GlcNAc
Outline: as §1

Neu5Gc(a2-6)GalNAc = target: Neu5Gc(a2-6)GalNAc
Outline: as §1

[23] = target: Neu5Gc(a2-8)Neu5Ac(a2-3)Gal(b1-4)GlcNAc
Outline: as §1

[24] = target: Neu5Gc(a2-8)Neu5Gc(a2-3)Gal(b1-4)GlcNAc
Outline: as §1

[25] = target: Neu5Gc(a2-8)Neu5Gc(a2-3)Gal(b1-4)GlcNAc(b1-3)Gal(b1-4)GlcNAc
Outline: as §1

[26] = target: Neu5Gc(a2-8)Neu5Gc(a2-6)Gal(b1-4)GlcNAc
Outline: as §1

[27] = target: Neu5Gc(b2-6)Gal(b1-4)GlcNAc
Outline: as §1

B1: CrataBL (Crataeva tapia), C0HJA4 (protein)
chain: AILTGVPYYILPSTSRAGFSPDNLRKNTSQLSCPLDLITQLRFPRRIGVPVIFTPQNSSLKVVPLSHNLNIHTCSDLWFCPESKIWTVKSSLTHGGSVVTTGGTFRSLGSWFRIERHGDSYKLVHCPRGSTPCRDVGIETVGGGGRRYLAPRDRPLAVRFTRASG
- glycan array binding signal (z-score) (Neu5Ac(a2-8)Neu5Ac): 0.429
- glycan array binding signal (z-score) [1]: 0.534
- glycan array binding signal (z-score) [2]: -0.21
- glycan array binding signal (z-score) [3]: -0.492
- glycan array binding signal (z-score) [4]: -0.22
- glycan array binding signal (z-score) [5]: -0.347
- glycan array binding signal (z-score) [6]: 0.475
- glycan array binding signal (z-score) [7]: 0.467
- glycan array binding signal (z-score) [8]: 0.189
- glycan array binding signal (z-score) [9]: 0.072
- glycan array binding signal (z-score) [10]: 0.491
- glycan array binding signal (z-score) [11]: 0.13
- glycan array binding signal (z-score) [12]: -0.462
- glycan array binding signal (z-score) [13]: -0.387
- glycan array binding signal (z-score) (Neu5Ac(b2-6)GalNAc): -0.456
- glycan array binding signal (z-score) [14]: -0.382
- glycan array binding signal (z-score) [15]: -0.414
- glycan array binding signal (z-score) [16]: -0.52
- glycan array binding signal (z-score) [17]: -0.462
- glycan array binding signal (z-score) [18]: -0.434
- glycan array binding signal (z-score) (Neu5Gc(a2-3)Gal(b1-4)Glc): -0.11
- glycan array binding signal (z-score) [19]: -0.39
- glycan array binding signal (z-score) [20]: -0.519
- glycan array binding signal (z-score) [21]: -0.303
- glycan array binding signal (z-score) [22]: 0.096
- glycan array binding signal (z-score) (Neu5Gc(a2-6)GalNAc): -0.202
- glycan array binding signal (z-score) [23]: -0.358
- glycan array binding signal (z-score) [24]: -0.428
- glycan array binding signal (z-score) [25]: -0.375
- glycan array binding signal (z-score) [26]: -0.193
- glycan array binding signal (z-score) [27]: 0.152
